Test results: PubChem BioAssay AID686979 (National Center for Advancing Translational Sciences (NCATS), 2013)
In all, about 420,000 compounds went through this assay and about 50,000 (12%) were called active. The inconclusive results got no clear call from the source; some entries with a clear call stand among them for comparison. The call rests on the fitted dose curve; in most records, active means well fitted inhibition curve with a large enough effect; inconclusive means small, poorly fitted or top-dose-only effect; inactive means flat fitted curve, though single readings scatter. Potencies of inconclusive entries are left out as doubtful fits.

Assay: qHTS for Inhibitors of human tyrosyl-DNA phosphodiesterase 1 (TDP1): qHTS in cells in presence of CPT; further: nearly all actives have a fitted effect of over 55% in size
Details: chicken DT40 Tdp1-/-;hTDP1 cells + 20 nM CPT, ATP luminescence, 48 h; activity change, negative = growth inhibition: at 46.2 µM (top of the series) unless noted
Procedure, shortened: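 Chicken DT40 Tdp1-/- cells complemented with human TDP1, 400 cells/well, exposed to compounds plus 20 nM camptothecin for at least 48 h at 37 C; viability read as ATP content by CellTiter-Glo luminescence.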
On the % scale 0 is the no-effect control and ±100 the full control effect; potency means the concentration at half of the fitted maximal effect; tags describe the fitted curve by direction and shape.

| Structure (SMILES) | activity change, negative = growth inhibition | Potency |
| --- | --- | --- |
| Cc1cccc(C)c1NC(=O)CN(C)C(C)C(=O)NCC(=O)Nc1ccc(F)c(F)c1F (centres undefined) | inactive: -10.9% | – |
| COc1cc(OC)c(C2N(c3ccc(Cl)c(Cl)c3)C(=O)C3CCCN32)cc1OC (centres undefined) | inconclusive: -33.2% [inhibitor] | – |
| CCOC(=O)C1=C(c2ccccc2)NC(=O)NC1c1ccc(O)c(Cl)c1 (centres undefined) | – | inconclusive [inhibitor, partial curve] |
| COc1cccc(NC(=O)Nc2cccnc2)c1 | – | inconclusive [inhibitor, partial curve] |
| O=C(COC(=O)C1CCC(=O)N1)Nc1ccccc1OC(F)F (centres undefined) | inactive: 19.7% | – |
| O=C(NCc1ccccc1Cl)C1CCC(CNS(=O)(=O)c2ccc(Br)s2)CC1 (centres undefined) | – | inconclusive [inhibitor, single point] |
| CCc1ccc(NC(=O)CSc2nc3ccsc3c(=O)n2C(C)CC)cc1 (centres undefined) | – | inconclusive [inhibitor, single point] |
| Cc1ccc(N(Cc2cccs2)C(=O)COc2ccccc2[N+](=O)[O-])cc1 | – | active: 20.6 µM |
| Cc1ccc(-c2nn(Cc3ccccc3)cc2C(=O)NCC2CCCO2)cc1 (centres undefined) | inactive: 0.756% | – |
| Brc1ccccc1-c1nnc2sc(Cc3ccccc3)nn12 | inactive: -26.4% | – |
| CC(=O)Nc1ccc(S(=O)(=O)NCCc2csc3nc(-c4cccc(C)c4)nn23)cc1 | – | inconclusive [inhibitor, single point] |
| O=C(c1ccco1)n1nc(-c2ccccc2)nc1NCc1ccccc1Cl | inactive: -27.7% | – |
| CCCn1c(=O)c(C(=O)Nc2ccccc2C)c(O)c2ccccc21 | – | inconclusive [inhibitor, single point] |
| COc1ccc(C2C=C(c3ccc(C)c(C)c3)Nc3ncnn32)c(OC)c1OC (centres undefined) | – | active: 8.2 µM |
| CCOC(=O)CCP(=O)(O)C(O)c1ccc(OC)cc1 (centres undefined) | inconclusive: -23.8% [inhibitor] | – |
| CCN1CCN(c2ccc(S(=O)(=O)N3CCOCC3)cc2NC(=O)c2ccc(OCC(C)C)cc2)CC1 | – | inconclusive [inhibitor, single point] |
| O=C(O)CCCCCN1C(=O)C2CCCCC2C1=O (centres undefined) | inconclusive: -20.9% [inhibitor] | – |
| O=C(NCc1ccccc1)C(=O)NCC(c1cccnc1)N1CCN(c2ccccc2)CC1 (centres undefined) | – | active: 16.4 µM |
| CC1(Oc2ccc(CC#N)cc2)CCN(Cc2ccc(-n3ccnc3)cc2)C1 (centres undefined) | – | inconclusive [inhibitor, single point] |
| CCC(SC1=Nc2ccccc2C2=NC(CC(C)C)C(=O)N12)C(=O)Nc1ccc2c(c1)OCO2 (centres undefined) | – | inconclusive [inhibitor, single point] |
| Cc1cccc(C(=O)NCCC(=O)Nc2ccc(C#N)cc2)c1 | inactive: -6.89% | – |
| Cc1csc(NC(=O)CCn2c(=O)oc3ccc(Cl)cc32)n1 | – | inconclusive [inhibitor, single point] |
| CCOC(=O)N1CCN(C(=O)c2ccc3c(c2)NC(=O)/C(=C\c2cccc(C)c2)S3)CC1 | – | inconclusive [inhibitor, single point] |

| Structure (SMILES) | activity change, negative = growth inhibition | Potency |
| --- | --- | --- |
| CCN(CC)C(=O)C1=C(C)N(Cc2ccccc2)C(=O)C(CC(=O)NCc2cccc3ccccc23)C1 (centres undefined) | – | inconclusive [inhibitor, single point] |
| Cc1ccc(N2C(=O)c3ccccc3C2Nc2ccccc2F)nc1 (centres undefined) | – | inconclusive [inhibitor, single point] |
| Oc1ccccc1N=Cc1ccc[nH]1 | – | inconclusive [inhibitor, single point] |
| CCOC(=O)c1c(NC(=O)C(C)Sc2c[nH]c3ccccc23)sc2c1CCC2 (centres undefined) | – | inconclusive [inhibitor, single point] |
| O=C1N=C(N2CCCC2)CN1c1ccccc1 | inconclusive: -32.1% [inhibitor] | – |
| Cc1noc(C)c1NC(=O)Nc1ccc2c(c1)C(=O)N([C@H](C)CO)C[C@H](C)[C@@H](CN(C)S(=O)(=O)c1ccc(Cl)cc1)OCCCC[C@@H](C)O2 | – | inconclusive [inhibitor, single point] |
| O=c1c(-c2ccccc2)nc2cncnc2n1C1CC1 | inactive: -6.95% | – |
| CC(NC(=O)C1CCCC1)c1ccccc1 (centres undefined) | inactive: 14.8% | – |
| COc1ccc(C(=O)N/C(=C\c2ccc3c(c2)OCO3)C(=O)N2CCOCC2)cc1 | inactive: -17.1% | – |
| Cc1ccc2c(CC(=O)OCc3nc(N)nc(Nc4ccccc4C)n3)coc2c1 | inactive: -4.45% | – |
| CNS(=O)(=O)CCc1ccc2[nH]cc(C3CCN(C)CC3)c2c1 | inactive: 2.46% | – |
| Cc1nn(CC(=O)Nc2cccc(C(F)(F)F)c2)c(=O)c2cccn12 | – | inconclusive [inhibitor, single point] |
| O=C(Nc1ccc(S(=O)(=O)Nc2cnc3ccccc3n2)cc1)c1ccc(Cl)c([N+](=O)[O-])c1 | – | inconclusive [inhibitor, single point] |
| CC12CCC3c4ccccc4CCC3(CO1)C2 (centres undefined) | – | inconclusive [inhibitor, single point] |
| CCOC(=O)N(C)c1c(CC)nc2c(OCc3ccccc3C)cccn12 | – | inconclusive [inhibitor, single point] |
| O=C(c1ccc(-c2cc3ccccc3oc2=O)cc1)N1CCN(c2ccc(Cl)cc2[N+](=O)[O-])CC1 | – | inconclusive [inhibitor, single point] |
| Nc1nnc(SCC(=O)c2ccccc2)s1 | inactive: -20% | – |
| Cc1cc2cc(CN(Cc3ccco3)C(=S)NCC3CCCO3)c(=O)[nH]c2cc1C (centres undefined) | – | inconclusive [inhibitor, single point] |
| CC(C)c1ccc(NC(=O)c2ccc(Br)o2)cc1 | – | inconclusive [inhibitor, single point] |
| O=C(NCCc1ccccc1)c1ccc(NC(=O)c2cccnc2)cc1 | inactive: -14.8% | – |
| Cc1ccc(OCc2nnc(SCC(=O)c3cccs3)n2-c2ccccc2)cc1C | – | inconclusive [inhibitor, single point] |
| CC(=O)N1c2ccc(S(=O)(=O)N3CCCC(C(=O)N4CCC(C)CC4)C3)cc2CC1C (centres undefined) | – | active: 20.6 µM |
| Cc1c(C)c2ccc(OCC(=O)NCCCn3ccnc3)cc2oc1=O | inactive: 12.4% | – |

| Structure (SMILES) | activity change, negative = growth inhibition | Potency |
| --- | --- | --- |
| Cc1nc(-c2ccc(F)cc2)c(CC(=O)Nc2cc(S(=O)(=O)N3CCCCC3)ccc2C)s1 | – | inconclusive [inhibitor, single point] |
| CC(C)[C@H](NC(=O)OC(C)(C)C)c1nnc(S(=O)(=O)Cc2c(F)cccc2Cl)o1 | – | active: 1.16 µM |
| CN(c1ccccc1)S(=O)(=O)c1cccc(C(=O)OCC(=O)Nc2ccc(C(N)=O)cc2)c1 | – | inconclusive [inhibitor, partial curve] |
| COc1cc(CN(C(=O)c2oc3ccccc3c2C)C2CCS(=O)(=O)C2)cc(OC)c1OC (centres undefined) | – | inconclusive [inhibitor, single point] |
| Nc1c(C(O)(C(F)(F)F)C(F)(F)F)cc(C(O)(C(F)(F)F)C(F)(F)F)c2ccccc12 | – | inconclusive [inhibitor, single point] |
| O=C(CCCn1c2ccccc2c(=O)c2ccccc21)Nc1ccc(F)cc1Cl | – | inconclusive [inhibitor, single point] |
| Cc1cc(C)cc(N(CC(=O)N2CCC(C)CC2)S(=O)(=O)c2ccccc2)c1 | – | inconclusive [inhibitor, single point] |
| CC(C)CNC(=O)c1cccc(NC(=O)COc2ccc([N+](=O)[O-])cc2)c1 | – | active: 13 µM |
| CC(=O)Nc1cc(-c2ccc(C(=O)N3CCOCC3)cc2)cn2c(-c3ccc(F)cc3)cnc12 | – | inconclusive [inhibitor, single point] |
| Cc1cc2c(NC(=O)Nc3ccc(C(F)(F)F)cc3)cccc2nn1 | – | inconclusive [inhibitor, single point] |
| COCCNC(=O)C[C@@H]1C[C@H]2c3cc(NC(=O)Nc4ccc(F)cc4)ccc3O[C@H]2[C@H](CO)O1 | – | inconclusive [inhibitor, partial curve, poor fit] |
| O=C(CN1CCCC1c1ccc2c(c1)OCCO2)NC(=O)Nc1ccccc1 (centres undefined) | – | inconclusive [inhibitor, single point] |
| COc1cc(NC(=O)c2ccc3c(c2)OCO3)ccc1NC(=O)C(C)C | inactive: -24.6% | – |
| CCn1c(=O)c2ccccc2n2c(SCC(N)=O)nnc12 | inactive: -0.0833% | – |
| COc1ccc(OCC(=O)NCCCn2ccnc2)cc1 | inactive: 12.3% | – |
| COc1ccc2oc(-c3ccccc3)c(C(=O)N(C)C)c2c1 | – | inconclusive [inhibitor, single point] |
| FC(F)(F)c1cc(CCN2CCNC[C@@H]2CC2CCCCC2)cc(C(F)(F)F)c1 | – | active: 23.1 µM |
| CC(Sc1nc2ncc(Cl)cc2[nH]1)C(=O)Nc1ccccc1[N+](=O)[O-] (centres undefined) | – | inconclusive [inhibitor, single point] |
| O=C(Nc1ccc(NC(=O)c2cccs2)cc1)c1ccc2c(c1)OCO2 | – | inconclusive [inhibitor, single point] |
| COc1ccc(CCNCC(O)COc2ccc(OC)cc2C(C)(C)C)cc1 (centres undefined) | – | inconclusive [inhibitor, single point] |
| COc1ccc(-c2noc(N3CCC(C(=O)Nc4ccccc4Cl)CC3)n2)cc1 | – | inconclusive [inhibitor, partial curve] |
| O=c1cc(-c2ccccc2)[nH]c2nc3ccccc3n12 | – | active: 9.2 µM |
| CC(CSc1nnnn1-c1ccccc1)Cn1c(N2CCCC2)nc2c1c(=O)[nH]c(=O)n2C (centres undefined) | – | inconclusive [inhibitor, single point] |
